Out of some 52,000 compounds screened, about 1,700 (3.3%) were called active. Rule as the data show it: active = survival mostly below about 52% (no sharp cut-off); inactive = mostly above about 56%. The list shows a part of the results.

In this assay the test system is Wild type. The experiment in a line: growth inhibition of S. aureus wild type versus tarO mutant, primary screen, teichoic acid synthesis inhibitors, RN4220, OD600 (AID 463173). The note with it: S. aureus RN4220 wild type/DeltatarO growth, OD600, 18 h, hits give low values, screened at 18.75 µg/mL (by protocol).
For the molecule `C#CCN1CCOCC1`, the survival was inactive: 111%.

For the molecule `O=C(Nc1ccc(Br)cc1)c1cc2nc(-c3ccccc3)cc(-c3ccccc3)n2n1`, the survival was inactive: 74%.

As to `COc1ccc(CCNc2oc(-c3ccc(C)cc3)nc2C#N)cc1OC`, the survival is inactive: 106%.

For `CCOc1ccc(-c2nnc(SCC(=O)NCc3ccc(Cl)cc3)o2)cc1`, the survival is inactive: 98%.

For the molecule `Cc1ccc(NC(=O)c2cc(S(=O)(=O)NC3CCCCCC3)ccc2F)cc1F`, the survival is inactive: 79%.

As for `S=C(NCc1ccc2c(c1)OCO2)Nc1ccccc1`, the survival was inactive: 108%.

As to `COc1ccc2[nH]cc(CCN=C(NC(=O)c3cccc(Cl)c3)Nc3nc(C)cc(C)n3)c2c1`, the survival was inactive: 60%.

For `C/C(=N\OC(=O)c1nn(C)cc1Br)c1ccc(Cl)cc1Cl`, the survival is inactive: 110%.

For `CC1=C(C(=O)NCc2ccc(Cl)cc2)C2(CCCCCC2)OC1=O`, the survival was inactive: 101%.

Regarding `COc1ccc(-c2ccc3c(N)c(C(=O)Nc4cccc(C)c4)sc3n2)cc1`, the survival was inactive: 92%.

Consider `COc1cccc(CSc2nc3n(n2)C(c2cccnc2)C(C(=O)Nc2ccccc2C)=C(C)N3)c1` (stereo not given), for which the survival is inactive: 83%.

As for `COc1ccc(C2(O)CC3CCC(C2)N3c2cc(C)nc(-c3ccccc3)n2)cc1` (stereo not given), the survival is inactive: 98%.

As for `Cc1ccc(N2CC(NC(=O)CCc3ccccc3)CC2=O)cc1` (stereo not given), the survival was active: -3%.

Consider `COc1ccccc1C(=O)NC(=O)Nc1ccc(-n2nc(C(F)(F)F)cc2C(F)(F)F)cc1`, for which the survival is inactive: 101%.

Regarding `COc1ccccc1C(=O)Nc1ccc(C(=O)OCc2cc(=O)n3ccsc3n2)cc1`, the survival was inactive: 72%.

As for `CCOC(=O)c1sc(NC(=O)c2cc3nc(-c4ccc(Br)cc4)cc(C(F)(F)F)n3n2)c(C(=O)OCC)c1C`, the survival was inactive: 118%.

Regarding `Cn1nc(CC(=O)Nc2ccc3c(c2)CCC3)c2ccccc2c1=O`, the survival was inactive: 97%.

As to `Cc1nc2cc(C(=O)O)ccc2n1-c1ccc(C(C)C)cc1`, the survival is inactive: 81%.

As for `Cc1cccc(N2CCN(C(=O)Cn3c(=O)c4cccn4c4ccc(F)cc43)CC2)c1C`, the survival is inactive: 85%.

On to `CCOC(=O)CCn1nc(C)c2c(C)n(-c3ccccc3)nc2c1=O`, for which the survival was inactive: 87%.

Consider `COc1ccc(Br)cc1CSC(=N)N`, for which the survival was inactive: 106%.

Regarding `Cc1nc2nc(SCC(=O)NCc3ccccc3)nn2c(C)c1Cc1ccccc1`, the survival is active: 0%.

On to `CC(C)CC(=O)Nc1ccc(Cl)c(-c2nc3ccccc3[nH]2)c1`, for which the survival was inactive: 60%.

As to `Cc1ccc(NC(=O)c2ccc(Br)cc2)c(C(=O)c2ccccc2)c1`, the survival was active: -2%.

For the molecule `N#Cc1ccc(NS(=O)(=O)c2ccc(-c3cnc(C4CC4)o3)cc2)cc1`, the survival is inactive: 66%.

Consider `COc1ccc(OC)c(CNC(=O)CN2C(=O)CCn3nc(-c4cn(C)c5ccccc45)cc32)c1`, for which the survival was inactive: 75%.

For `COc1ccccc1N(CC(O)Cn1ccnc1C)S(=O)(=O)c1ccc(C)cc1` (stereo not given), the survival is inactive: 105%.

On to `CCOc1nc(NC(=O)NS(=O)(=O)Oc2ccccc2Cl)nc(-c2ccccc2)n1`, for which the survival was inactive: 74%.

As for `Cc1ccc(C)n1-c1nnc(N2CCCC(C(=O)NCc3ccccc3)C2)s1` (stereo not given), the survival was inactive: 82%.

As to `COc1cc2nc(NCC(C)c3ccccc3)n3nc(-c4ccccc4)nc3c2cc1OC` (stereo not given), the survival is inactive: 88%.

Turning to `Cc1ccc(NC(=O)CCc2c(C)nc3nc(C)nn3c2C)c(Cl)c1`, the survival was inactive: 70%.

With `CCOC(=O)c1ccccc1NC(=O)N(Cc1ccco1)C1CCN(C(C)=O)CC1`, the survival is inactive: 134%.

On to `CNC(=O)c1ccc(Nc2nnc(-c3ccc(C)c(S(=O)(=O)N4CCOCC4)c3)c3ccccc23)cc1`, for which the survival was inactive: 78%.

Regarding `CCc1cccc(NC(=O)CN2C=NS(=O)(=O)c3ccccc32)c1`, the survival was inactive: 70%.

As to `Cc1cccc(-c2nc(Cn3c(SCc4cc(C)ccc4C)nc4ccncc43)c(C)o2)c1`, the survival is inactive: 33%.

On to `O=C(NCc1ccccc1Cl)C1CCC(CNS(=O)(=O)c2ccc(Br)s2)CC1` (stereo not given), for which the survival was inactive: 146%.

For the molecule `CCc1ccc(NC(=O)CSc2nc3ccsc3c(=O)n2C(C)CC)cc1` (stereo not given), the survival is inactive: 75%.

As to `O=C(c1ccco1)n1nc(-c2ccccc2)nc1NCc1ccccc1Cl`, the survival was inactive: 90%.

Turning to `CC(=O)Nc1ccc(S(=O)(=O)NCCc2csc3nc(-c4cccc(C)c4)nn23)cc1`, the survival is inactive: 59%.

With `Cc1ccc(N(Cc2cccs2)C(=O)COc2ccccc2[N+](=O)[O-])cc1`, the survival was inactive: 78%.

For `COc1ccc(CCNC(=O)c2nn(C)c3c2CSc2ccccc2-3)cc1OC`, the survival was inactive: 84%.

`O=C(NCc1ccccc1)C(=O)NCC(c1cccnc1)N1CCN(c2ccccc2)CC1` (stereo not given): the survival was inactive: 82%.

On to `Cc1ccc(-c2nn3c(-c4ccc(C)cc4)nnc3c3ccccc23)cc1`, for which the survival was active: 20%.

Consider `O=C(CCCn1c2ccccc2c(=O)c2ccccc21)Nc1ccc(F)cc1Cl`, for which the survival was inactive: 80%.

Regarding `COc1cc(CN(C(=O)c2oc3ccccc3c2C)C2CCS(=O)(=O)C2)cc(OC)c1OC` (stereo not given), the survival is inactive: 81%.

As for `COc1ccccc1-n1c(SCC(=O)Nc2ccc(C)cc2)nc(O)cc1=O`, the survival is inactive: 70%.

On to `Cc1ccc(-c2nc(S(=O)(=O)c3ccc(C)cc3)c(SCC(=O)NC3CCCCC3)o2)cc1`, for which the survival was inactive: 70%.

Consider `COc1ccccc1CNC(=O)CCC1N=C2c3ccccc3N=C(SCC(=O)NCCc3ccc(OC)c(OC)c3)N2C1=O` (stereo not given), for which the survival was inactive: 101%.

With `COc1cccc(NC(=O)c2cc3c(=O)n(Cc4cccnc4)ccc3nc2C)c1`, the survival is inactive: 78%.

In the case of `CCc1ccc(-c2cc(C)no2)cc1S(=O)(=O)Nc1ccc(Cl)cc1`, the survival was inactive: 74%.

For `COc1ccc(-c2noc(-c3ccc(NC(C)c4ccccc4)c([N+](=O)[O-])c3)n2)cc1OC` (stereo not given), the survival is inactive: 85%.

`COc1ccc(NC(=O)OCC(F)(F)F)cc1`: the survival was inactive: 109%.

Regarding `COc1cc(NS(=O)(=O)c2ccc3oc(=O)c4ncn(C)c4c3c2)cc(OC)c1`, the survival is inactive: 134%.

Take `O=C(Nc1cccc(C(F)(F)F)c1)c1cccnc1NCCO`: the survival is inactive: 112%.

As to `CCN1CCC(N(Cc2ccc3c(c2)OCO3)C(=O)Nc2ccccc2OC)CC1`, the survival was inactive: 72%.

Regarding `CCOC(=O)c1c(C)[nH]c(CCC(=O)NCc2ccccc2C)c1C`, the survival was inactive: 71%.

Regarding `CCOc1ccccc1CN(CCc1ccc2c(c1)OCO2)Cc1cccc(OC)c1OC`, the survival is inactive: 41%.

Take `CN(C)c1ccc(NC(=O)CSC2=Nc3ccccc3C3=NC(CC(=O)NCc4ccccc4)C(=O)N23)cc1` (stereo not given): the survival is inactive: 127%.

Turning to `CCCN1C(=O)c2[nH]nc(-c3ccc(F)cc3)c2C1c1ccccn1` (stereo not given), the survival is inactive: 82%.

Regarding `CC1CN(C(=O)N2CCC(C(=O)NC3CCCCCC3)CC2)c2ccccc2O1` (stereo not given), the survival is inactive: 86%.

As to `COc1cccc(C2CC(=O)N3CN(C4CCCCC4)CSC3=C2C#N)c1` (stereo not given), the survival is inactive: 82%.

Turning to `COc1cc(NC(=O)C(CCS(C)(=O)=O)N2Cc3ccccc3C2=O)cc(OC)c1OC` (stereo not given), the survival is active: 14%.

Turning to `COC(=O)Cn1cnc2c1c(=O)[nH]c(=O)n2C`, the survival was inactive: 118%.

For the molecule `Cc1ccc(N2CC(c3nnc(NC(=O)c4ccco4)s3)CC2=O)cc1C` (stereo not given), the survival was inactive: 81%.

Take `O=C(NC1CCCC1)c1ccc(CSc2nc3ccncc3n2Cc2ccc(F)cc2)cc1`: the survival is inactive: 79%.

In the case of `COc1ccc(-n2cc(C(=O)NC(C)c3ccccc3)c3ccccc3c2=O)cc1` (stereo not given), the survival is inactive: 83%.

For `CCN1CCN(c2cc(C)c3cc(NC(=O)/C=C/c4cccc(Cl)c4)ccc3n2)CC1`, the survival is inactive: 62%.

In the case of `Cc1ccc(NC(=O)Cn2cc(S(=O)(=O)N3CCCC3)c(S(=O)(=O)N3CCCC3)c2)cc1C`, the survival is inactive: 84%.

With `CCOc1ccc(NC(=O)c2ccc(-c3cccc(Cl)c3C)o2)cc1`, the survival is inactive: 66%.

Take `CCC(C#CCN1CCCCC1)(CC)OC(C)=O`: the survival is inactive: 100%.

Take `CCOC(=O)c1cnc2c(ccc3ccccc32)c1Nc1ccc(OC)c(OC)c1`: the survival was active: 5%.

As to `Cc1cccc(C2C=C(c3ccc(F)cc3)Nc3nc4ccccc4n32)c1` (stereo not given), the survival was inactive: 82%.

On to `O=c1c2cc3c(nc2ncn1Cc1ccccc1F)CCCC3`, for which the survival is inactive: 73%.

As for `Cc1ccc(NC(=O)/C(C#N)=C/c2cn(CC(=O)NCc3ccco3)c3ccccc23)cc1Cl`, the survival was inactive: 108%.

For `Cc1ccc(OCC(O)CN)cc1` (stereo not given), the survival was inactive: 111%.

Regarding `CCOc1ccc(Cn2c(CNS(=O)(=O)c3ccc([N+](=O)[O-])cc3)nc3cccnc32)cc1`, the survival was inactive: 87%.

With `CN1CN2C(=O)N3CN(C)CN4C(=O)N(C1)C2C34` (stereo not given), the survival was inactive: 110%.

For the molecule `COCCn1ccc2c(OCC(=O)NCc3ccc(F)cc3)cccc2c1=O`, the survival was inactive: 81%.

On to `COc1ccc(C(=O)NCCSc2c(C)[nH]c3ccccc23)cc1`, for which the survival is inactive: 109%.

Consider `Cc1ccc(NC(=O)Nc2nnc(SCC(=O)N3CCC(C)CC3)s2)cc1`, for which the survival was inactive: 82%.

Regarding `COc1ccccc1-c1cc(C(F)(F)F)nc(S(=O)(=O)CCCC(=O)Nc2ccc(F)c(Cl)c2)n1`, the survival is inactive: 100%.

`COc1ccc(C(=O)N2CCC(c3c[nH]c4ccccc34)(c3c[nH]c4ccccc34)CC2)cc1`: the survival is inactive: 61%.

Consider `COc1ccc(NC(=O)c2cc(C3CC3)nc3c2c(C)nn3-c2ccc(C)cc2)cc1OC`, for which the survival is inactive: 148%.

`CN(C)c1ccc(CNC(=O)C2CCN(S(=O)(=O)c3cn(C)cn3)CC2)cc1`: the survival is active: -2%.

For `COc1ccccc1CNC(=O)c1oc2c(c1C)-c1nn(Cc3ccc(Cl)cc3)cc1CC2`, the survival is inactive: 81%.

`COc1ccc(NC(=O)c2sc3nc(-c4cc5cccc(OC)c5oc4=O)[nH]c(=O)c3c2C)cc1`: the survival is inactive: 91%.

`Cc1c(NS(C)(=O)=O)cccc1-c1nc2ccccc2s1`: the survival was inactive: 83%.

With `O=c1c2ccc(N3CCOCC3)c3cccc(c32)c2nc3ccccc3n12`, the survival was inactive: 105%.

Consider `Cc1c(C(=O)Nc2ccncc2)oc2ccccc12`, for which the survival is inactive: 102%.

Consider `Cc1ccc(C)c(CN2C(=O)c3ccccc3S(=O)c3ccc(C(=O)NCCc4ccc(Cl)cc4)cc32)c1` (stereo not given), for which the survival was inactive: 95%.
